The source gives no read counts; variants with many changes may rest on few reads.
B1: CPEB3 Ribozyme (parent)
chain: UAACAGGGGGCCACAGCAGAAGCGUUCACGUCGCAGCCCCUGUCAGAUUCUGGUGAAUCUGCGAAUUCUGCUGUAUAUCUC

Variants of: B1
Assay: self-cleavage, relative activity (ratio to wild type); higher = more cleavage; in vitro, sequencing
Outline: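 After error-prone PCR and barcoding, CPEB3 ribozyme mutant libraries were transcribed with T7 RNA polymerase at 37°C for 5 hours, then given 15 min with DNase I before an EDTA stop, and they cleaved during both steps. Reverse transcription with template switching preceded Illumina sequencing. Relative activity divides a variant's cleaved/total read fraction by the unmutated ribozyme's. At least 5 reads were required per variant, and three batches were averaged.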
In the case of A5U C27G U41A, the self-cleavage is reported as 0.
With A5U C27U C62U U78C the self-cleavage was 0.11.
Work on A5U C29A G30U U43A A47G G70A yielded a self-cleavage of 0.09.
A5U C29U C62G showed a self-cleavage of 0.31.
Work on A5U C32A G61A A65U U76C yielded a self-cleavage of 0.13.
A5U C32U C37A U51C A56U C62G gave a self-cleavage of 0.19.
For A5U C32U C39A C50A, the self-cleavage was 0.39.
A5U C34U A35U gave a self-cleavage of 0.35.
A5U C37U A45U U67C U74A gave a self-cleavage of 0.13.
In the case of A5U C38U A47G U67C A75G, the self-cleavage is reported as 0.18.
In the case of A5U C38U U41A U58C U72C, the self-cleavage is reported as 0.11.
In the case of A5U C38U U49G U54A U67C U78C, the self-cleavage is reported as 0.05.
A5U C38U U67C A75G showed a self-cleavage of 0.12.
With A5U C39A A64U the self-cleavage was 0.12.
For A5U C40U U48G U54C C62A, the self-cleavage was 0.04.
In the case of A5U C40U U51C U54C, the self-cleavage is reported as 0.37.
A5U C40U U54A gave a self-cleavage of 0.87.
A5U C44U U66G U76C gave a self-cleavage of 0.09.
With A5U C59A A77G the self-cleavage was 0.24.
In the case of A5U C62A G63A, the self-cleavage is reported as 0.4.
Work on A5U G6A A45G A57G U72A U76C yielded a self-cleavage of 0.09.
In the case of A5U G6A G30A U66G U69A, the self-cleavage is reported as 0.05.
In the case of A5U G6A G36U, the self-cleavage is reported as 0.13.
Variant A5U G6A U43C U54C A64U has a self-cleavage of 0.09.
With A5U G6A U48G the self-cleavage was 0.08.
A5U G6A U54C U72C showed a self-cleavage of 0.14.
A5U G6C A18U G24A gave a self-cleavage of 0.42.
For A5U G6C G7A C50U A57G U67C A77U, the self-cleavage was 0.06.
Work on A5U G6U A13U U48C A56U A77G yielded a self-cleavage of 0.06.
A5U G6U U25C U26G U41A A56G A57G showed a self-cleavage of 0.09.
With A5U G7A A21G U25C the self-cleavage was 0.29.
A5U G7A C37G U41A A57G U58C gave a self-cleavage of 0.04.
In the case of A5U G7A U25A A28U, the self-cleavage is reported as 0.28.
With A5U G7A U25A A45U A56G the self-cleavage was 0.07.
With A5U G7C A56G the self-cleavage was 0.44.
With A5U G7C G22C U72C the self-cleavage was 0.1.
Work on A5U G7U A15G U25C U41C U66C U78C yielded a self-cleavage of 0.06.
A5U G7U A15G U58C showed a self-cleavage of 0.26.
A5U G7U A35G A64U showed a self-cleavage of 0.19.
For A5U G8A A35G U69A, the self-cleavage was 0.19.
A5U G8A U51A showed a self-cleavage of 0.29.
A5U G8A U54A A56U gave a self-cleavage of 0.08.
In the case of A5U G8A U69C, the self-cleavage is reported as 0.08.
A5U G8C A35G A45G U72C U80C gave a self-cleavage of 0.09.
Work on A5U G8C A35U U69A C79U yielded a self-cleavage of 0.14.
For A5U G8C G9U U66A, the self-cleavage was 0.09.
Work on A5U G8C U54A A57G U66C U72A yielded a self-cleavage of 0.23.
Variant A5U G8C U54C U69C has a self-cleavage of 0.17.
A5U G8C U78C U80C gave a self-cleavage of 0.23.
For A5U G8U A18G A21U A28G U78C, the self-cleavage was 0.18.
In the case of A5U G8U A18G C32A A45U C62U G70C, the self-cleavage is reported as 0.03.
Work on A5U G8U A18U C62G yielded a self-cleavage of 0.09.
For A5U G8U A56C U78C U80C, the self-cleavage was 0.15.
For A5U G8U A64U, the self-cleavage was 0.13.
Work on A5U G8U C38U U49C A65C U69C A75G yielded a self-cleavage of 0.03.
For A5U G8U C39U, the self-cleavage was 0.22.
With A5U G8U G10U A18G A20U the self-cleavage was 0.16.
Variant A5U G9A A13U U26G A65G has a self-cleavage of 0.26.
For A5U G9A A15C A20G U51G A64G U78C, the self-cleavage was 0.06.
In the case of A5U G9A A15U, the self-cleavage is reported as 0.29.
With A5U G9A C12U U25C A28G U41G G52A the self-cleavage was 0.06.
A5U G9A G16U U43C C50G U66C U69C showed a self-cleavage of 0.05.
For A5U G9A U25A A28U U31C U69A, the self-cleavage was 0.04.
Work on A5U G9A U43A A56G yielded a self-cleavage of 0.37.
With A5U G9A U54C U66C U67A the self-cleavage was 0.21.
A5U G9C A28G U74C gave a self-cleavage of 0.31.
In the case of A5U G9U A20G G24A U25C A35U C38U, the self-cleavage is reported as 0.05.
In the case of A5U G9U A35U C38U U43G A57U U74A, the self-cleavage is reported as 0.04.
A5U G10A A15G A18U U25C A65U gave a self-cleavage of 0.05.
For A5U G10A A15G C29U U48C U54A, the self-cleavage was 0.05.
For A5U G10A C14A U25C, the self-cleavage was 0.23.
For A5U G10A C39A U41A U49C A56U U72G, the self-cleavage was 0.1.
A5U G10A U31G U48C gave a self-cleavage of 0.23.
A5U G10C A18U G19U U49C gave a self-cleavage of 0.21.
Variant A5U G10C A20U C40U has a self-cleavage of 0.1.
In the case of A5U G10C U60C, the self-cleavage is reported as 0.21.
A5U G10U A28G U51A G52A A64G gave a self-cleavage of 0.05.
Work on A5U G10U A77G U80C yielded a self-cleavage of 0.23.
With A5U G16A U31C U51A the self-cleavage was 0.28.
A5U G16C C27A C37U A64G A77G showed a self-cleavage of 0.04.
A5U G19A A20G U25G A45G gave a self-cleavage of 0.09.
A5U G19A A20U C32G A75U U78C showed a self-cleavage of 0.05.
Variant A5U G19U A21G G24A U41G C79U has a self-cleavage of 0.43.

Reference: the RNAGym collection of RNA variant scans (doi:10.1093/nar/gkz1192)
